Reference: the supplement of paper PMC4466236
Whole data set: some 33,000 sequences, median “E-score (dimensionless, -0.5 to 0.5)” near -0.058, cut for the highest 2% near 0.35. The list shows a part of the results.

The sequences below were run on MvaT (assay: PBM 8-mer E-score (mean of HK and ME arrays) (E-score (dimensionless, -0.5 to 0.5)); higher = stronger relative binding preference; most listed sequences are background and not binding sites).
Outline: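 Reported values are rank-based E-scores, taken as the mean of two universal arrays and parsed with a custom script. Each 8-mer score falls between -0.5 and 0.5. The arrays, ME and HK, were double-stranded 60-mers with a constant 25-mer primer region and a variable 35-mer region covering all 8-mers. They were probed, by an earlier protocol, with full-length P. aeruginosa MvaT carrying an N-terminal glutathione S-transferase fusion.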

Sequence | PBM 8-mer E-score
AGCACCAC | -0.21
ATGTTCCC | 0.0221
AACTGCAA | 0.207
AGTTTGAT | 0.24
CAGACACC | -0.0553
CAAAGTGA | 0.16
CAACCCCA | -0.0732
GGCAACGA | -0.0752
ACGATACG | -0.149
CGGTCTCC | -0.241
CGAAGGGA | -0.356
CTAGTCCA | -0.0295
CCCGACCG | -0.284
GAATCGGA | -0.0399
AGGCGGGC | -0.225
ACATGTCA | 0.0432
AATTAGAA | 0.301
AGTAGTGG | 0.106
CGGGTCTA | -0.216
ACTGACCC | -0.197
AGAACTCA | -0.0844
ATAAAGGC | -0.0383
ACCCGTAC | -0.0627
GTTATTAA | 0.383
AACTGCAG | -0.0112

Sequence | PBM 8-mer E-score
CCAAACCA | 0.0446
GGCGCACC | -0.275
AGACGTAT | -0.0441
AGTGATCA | -0.052
GCCCCGGA | -0.364
GCAACCCA | 0.0138
ACACGCAA | 0.112
TAGGATCA | -0.0994
AACGCGAG | -0.174
GACACTTA | 0.216
GCTGCAGA | -0.0279
ATGTCAAA | 0.2
AAACACTT | 0.226
ACGCAACG | -0.213
CCCCAGAC | -0.233
CACCGTAA | 0.0765
ATATAGAC | 0.224
CCCAGGTC | -0.222
ATTCTTAC | 0.0996
CCTGCGCC | -0.28
ATTAGAGG | 0.113
AGTCGTTC | -0.157
AGATGGAT | -0.00506
ACTCAAAA | 0.0955
CACCTCGA | -0.244

Sequence | PBM 8-mer E-score
CATCTCTC | -0.116
AAAACTCG | 0.0362
TCACTGAA | -0.0165
CTACAGTA | 0.155
CCTCGACA | -0.0454
CTGTCAGA | -0.132
GACAATAC | 0.149
CTGCAATC | -0.0619
TAAGATGA | 0.0542
ATCCGTAG | -0.161
ATGGAGAA | 0.0308
AGTCCGAC | -0.0922
AGAACGGA | 0.0561
AGCGTTAC | 0.0974
GGAAATAC | 0.0517
ATTTAATA | 0.411
AAATGGAA | 0.123
TATGAACA | 0.164
GCGAGGCA | -0.257
AAGACGCT | -0.168
TTATCAAA | 0.156
GCGCTACC | -0.144
AAGAAGCA | -0.121
CGAGAAAA | 0.129
CTAATCGC | -0.0851

Sequence | PBM 8-mer E-score
CACAAAAG | 0.0627
CAGGGCTC | -0.343
GTGAGGTA | 0.0259
CAGCCACC | -0.145
AGTAATAT | 0.418
CTCAGACC | -0.184
GATGGCAC | -0.15
AGTCTGAC | -0.0126
AAAACTGA | 0.0579
CACGATTA | 0.0205
ATCCTTCG | -0.0833
GGTGGGTA | -0.0509
CGCGACCA | -0.153
AGATTATA | 0.39
ATTCTCCG | -0.0509
AAACACGA | 0.0986
CACACGAG | -0.0967
ATTTTGTA | 0.194
TCAGCGAA | -0.0912
CAGCTTCA | -0.293
ACTCGAAT | 0.103
CGTAGCGA | -0.233
CTAACGCA | -0.0805
GAGTCCAC | -0.279
ATTGCGGA | 0.21

Sequence | PBM 8-mer E-score
CCGCAAGG | -0.337
ATGGCACA | -0.0727
CCGTTGAG | -0.239
CTCTCCAA | -0.0509
TCTTTTAA | 0.296
AAGTCTCG | 0.0345
CAAAAGTA | 0.16
ACTAACTA | 0.381
CCGGAGGA | -0.252
ATGGGCTA | 0.00241
CCGCGGGA | -0.186
ACCGTAAG | 0.148
GACCGAAA | -0.0789
AGTTGGGC | 0.0103
GGTTTTTA | 0.207
TCGTAAAA | 0.149
CGCTGAGC | -0.223
CCTACGAC | -0.256
ACACGGCC | -0.133
CCAACCAA | -0.146
ACTAGCCG | -0.0374
CCTCTGCA | -0.27
CAGCCCTC | -0.241
AGGCGGTG | -0.00443
CTATGGCA | -0.284

Sequence | PBM 8-mer E-score
TCATGCCA | -0.0757
GAGAACGA | -0.25
CGGGGTCC | -0.264
AGATCTCA | -0.0537
GCTCGATA | -0.0114
GTAGTGAC | -0.0876
CGCATCCA | -0.25
AGGCATTA | 0.0775
CATCGACG | -0.248
GGCTGTAA | 0.00482
AAGGGTCG | -0.115
CCACATCG | -0.175
CGGGGATA | 0.0564
AAGTTGTA | 0.309
TCTCTGCA | -0.148
TCTGAAGA | 0.16
AAACAACA | 0.214
CGATTATC | 0.206
ACGCCACC | -0.0744
ATAATTTG | 0.298
AACATTGG | 0.0636
ACAATAAA | 0.356
CCCGTTAA | 0.186
GCTCGAGA | -0.152
ACGACGCT | -0.121

Sequence | PBM 8-mer E-score
ATAGCTAC | 0.00214
CGACGTCC | -0.271
AGACATCA | -0.066
CAGGGTTA | -0.000473
ACTGTCAC | -0.0625
AGGTGTTA | 0.0743
GCTTATGA | -0.0922
GTTGTACA | 0.115
GGCCATGA | -0.203
GCCGTTGA | -0.28
CGCACCAA | -0.207
ACGAATTC | 0.0502
GGGATCGA | -0.139
ACCGTACC | -0.217
GTACCGAA | -0.0613
AGCTGGGG | -0.186
CAGCCCCC | -0.34
CTGGGAGA | -0.163
ATATGGAG | 0.154
GATCCCGA | -0.0935
CCCCCGGC | -0.255
CACGGCTG | -0.201
